Source: PubChem BioAssay AID1845195 (Molecular Pharmacology Branch, DTP, NCI, 2023)
A number of entries come with more than one value. They are shown here; other results are not. An entry can have further records. The records of an entry are repeats in other runs, samples, wells, individuals or studies.

Test system: 156681-154-R-J1 tumor spheroid viability
Assay: Anticancer human tumor 156681-154-R-J1 patient-derived melanoma cell line growth inhibition
Conditions: stronger effect = lower value, spheroids with HUVEC and MSC
Source text: Multicellular complex tumor spheroid response to DNA repair inhibitors in combination with DNA-damaging drugs
This study explores the anticancer activities of DNA-damaging drugs and inhibitors of DNA damage repair, both as single agents and in combinations. Complex tumor spheroids comprised of malignant cells, endothelial cells and mesenchymal stem cells served as an in vitro model for human solid tumors. This model system incorporates physiologically relevant features and patient-derived or established malignant cell lines with clinically relevant genetic alterations from many tumor types. Twenty-six patient-derived or established malignant cell lines were evaluated representing sarcoma, melanoma, small cell lung cancer (SCLC), non-small cell lung cancer (NSCLC), as well as bladder, ovarian and pancreatic cancers. The concentration ranges selected for each drug and investigational agent were based upon clinically achievable concentrations if the clinical Cmax of the agent was known.
Compounds. The drugs and compounds olaparib (NSC753686), talazoparib (NSC767125), berzosertib (NSC777718), elimusertib (NSC800525), nedisertib (NSC802822), VX-984 (NSC792969), AZD-1390 (NSC803789), temozolomide (NSC362856), topotecan (NSC609699), trabectedin (NSC813783), staurosporine (NSC755774), and gemcitabine (NSC613327) were obtained from the National Cancer Institute (NCI) Developmental Therapeutics Program Chemical Repository. The FDA-approved anticancer drug set is available from the Developmental Therapeutics Program at https://dtp.cancer.gov/organization/dscb/obtaining/available_plates.htm. […] The stock solutions were prepared in dimethyl sulfoxide (DMSO, Sigma-Aldrich, St. Louis, MO, cat. D2650) at 400-fold the tested concentration and stored at -70 degrees C. Prior to their use, the stock solutions were diluted in fresh medium and the final DMSO concentration in the assay was 0.25% (v/v). All drugs and investigational agents were tested over a range starting from a high concentration at or near the clinical Cmax and decreasing in half-log increments. If the clinical Cmax for an agent had not been determined, the highest concentration tested was 10 microM.
Cell Lines. The patient-derived cancer cell (PDC) lines: 156681-154-R-J1-PDC, 283228-195-R-J1-PDC, 287954-098-R-J1-PDC, 292921-168-R-J2-PDC, 349418-098-R-PDC, 425362-245-T-J1-PDC, 556581-035-R-J1-PDC, and BL0293-F563-PDC were received from the NCI Patient-Derived Models Repository (PDMR, https://pdmr.cancer.gov). The established cell lines HS-SY-2 (RRID:CVCL_8719), MPNST, and SYO-1 (RRID:CVCL_7146) were obtained from the Sloan Kettering Institute. The alveolar soft parts sarcoma cell line ASPS-1 (RRID:CVCL_S738) was established at the NCI and grown from internal seed stocks. The following established cell lines were purchased from the American Type Culture Collection (ATCC, Manassas, VA): G-401 (ATCC, cat. CRL-1441, RRID:CVCL_0270), SW982 (ATCC, cat. HTB-93, RRID:CVCL_1734), VA-ES-BJ (ATCC, cat. CRL-2138, RRID:CVCL_1785), NCI-H719 (ATCC, cat. CRL-5837, RRID:CVCL_1582), NCI-H196 (ATCC, cat. CRL-5823, RRID:CVCL_1509), NCI-H841 (ATCC, cat. CRL-5845, RRID:CVCL_1595), NCI-H1618 (ATCC, cat. CRL-5879, RRID:CVCL_1480), NCI-H1876 (ATCC, cat. CRL-5902, RRID:CVCL_1503), DMS 114 (ATCC, cat. CRL-2066; RRID:CVCL_1174), NCI-H211 (ATCC, cat. CRL-5824; RRID:CVCL_1529), and SW 1271 (ATCC, cat. CRL-2177, RRID:CVCL_1716). […]
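Also: spheroids exposed to compounds for 7 days before readout; percent of vehicle control viability where 100% = DMSO-treated spheroids.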

SMILES	viability, T/C (compound alone 0.003 µM)	viability, T/C (compound alone 0.03 µM)	viability, T/C (compound alone 3.16 µM)	viability, T/C (compound alone 10 µM)	viability, T/C (compound alone 100 µM)
CC[C@@]1(O)C(=O)OCc2c1cc1n(c2=O)Cc2cc3c(CN(C)C)c(O)ccc3nc2-1	83.8, 102, 95.6, 111, 90.9, 88.8, 100, 95.3, 91.3, 93.5%	60.4, 61, 62.6, 43.8, 58.4, 75.3, 77.9, 62.5, 57.2, 64.7%			
Cn1nnc2c(C(N)=O)ncn2c1=O			69.2, 75.5, 83.8, 103, 81.2, 81, 96.9, 62.3, 89.7, 87%	68.5, 63.8, 83.3, 71.5, 73, 101, 75.9, 59.6, 62.1, 94.1%	55, 51.4, 48.2, 48.6, 46.6, 56.8, 74.1, 53.3, 50.4, 54.2%
